# The supplement of paper PMC11417369
# This is one part of the list.
# System: PfHDP1 homeodomain (GST-tagged)
# Assay: gcPBM binding intensity (ln(normalized median fluorescence intensity)); higher = stronger DNA binding
# Summary of the method: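 Probes on an Agilent 4 × 180k array were primer-extended, double-stranded and 36 bp long, taken from intergenic genomic regions, with negative controls added. GST-tagged P. falciparum DNA-binding domains from E. coli, about 25 μg on average, were applied to the array for 1 h in 1× PBS containing 1% milk, 0.2 mg/ml BSA, 0.5% salmon testes DNA and 0.03% Triton X-100. Binding intensity, obtained after Alexa488 anti-GST antibody detection and a 488 nm scan, is the highest Masliner-normalised natural-log median intensity across replicate spots of either probe orientation.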
row,Sequence,gcPBM binding intensity (ln)
1,TATATATACAGACACATACACACAAATAAAAAAACA [CACACA_site3413],7.08
2,AGCTCTTGTCATTTTGCACACACACCGGTATAGGTT [CACACA_site5654],10.4
3,GTGTATTTATGTTATACACACAAAAATATTTTGTAT [CACACA_site4305],7.13
4,AATGTAGGTTTATTTACACACAAATATAGATATATA [CACACA_site6825],6.28
5,ATATTTAAAAAAGAGTGTACTCATCTCTTTTAAAAA [XGTACX_site1160],6.07
6,CTATTTCGTATATATAGTACATATTATAACATACTA [XGTACX_site978],6.73
7,ATGCATCATTTATTTGCACACCTATTATATACTTTT [CACACA_site2097],10.1
8,TGATTATATAAAAAAAAGAAAAAAAAAAAAAAAAAA [CACACA_negctrl_site819],5.77
9,ATAATTCATGTTTAGTGTACAAAAAATTAAAGCAAC [XGTACX_site8891],7.25
10,TATATATATATAATATGTACATATATATATTCTTAA [XGTACX_site6154],8.78
11,AAATAATTTATATGTAGTACATGTTGTAGATAATTT [XGTACX_site1031],6.67
12,ATCTTTATTTTTAGCGCACACATAAAATAATAATAA [CACACA_site3458],7.63
13,CAAAGCATTTTATCTACACACATATATAAATAAATA [CACACA_site7500],6.3
14,TTTTTTTTTTTATGTGCACACAAAAGATGCTTATAT [CACACA_site2347],10.7
15,TGATGCAAGATATATACACACATATAAATATAAATA [CACACA_site7429],6.81
16,TATTTTAACTTTTTTTCCTTTATTCATTTTTTTTTC [CACACA_negctrl_site971],6.27
17,TTATGATAACTTTGCACACACTTAGGAAAAGTTATG [CACACA_site6836],10.6
18,TAAAGGTGTAAAACTGCATGCTGGAGAAAAGTAAAA [TGCATGCA_site591],7.13
19,AATAATACGTTAAATGTTCTTACAAGTTGGTTTCAT [CACACA_negctrl_site1029],6.33

row,Sequence,gcPBM binding intensity (ln)
1,AAAAAAAAAAAAAAGTGTACCTTATTATACTTTAAT [XGTACX_site8439],6.29
2,ATTATATAATATAATGCATGTGTTAATGAAAAATCT [TGCATGCA_site426],6.6
3,AAAAAAAAATTTGTATCACACACGTATTATAAAAAA [CACACA_site6],6.28
4,AAATATATATATATATGTACACACACACATATAAAT [XGTACX_site847],6.82
5,CACACTAAAAGACACACACACACACGCATATAAATA [CACACA_site7874],6.75
6,ATTAAACATACATATACACACACACCCACCCACCCA [CACACA_site8057],7.24
7,TAGTGTAAAAAATACGCATGTGTACAAATATAATAA [TGCATGCA_site498],6.94
8,TTGTAGGAATTTATTTTGACTGATAATTAATACGTT [GTGCAC_negctrl_site46],5.75
9,GATATAGATATTAATTGTACATATTATTTATTGTTA [XGTACX_site846],6.44
10,TTCTAAAAAGGGTGTACACAAACGAATGGAAAATAA [CACACA_site5483],7.57
11,GATATGTACTAATACACACACATATATATATATATA [CACACA_site1022],9.41
12,ATAATTTTTATTTGTACACACATACAGATATATTAT [CACACA_site4701],6.53
13,AAGAATCACCAAATATGTACACACCTTAACATGTTT [XGTACX_site4272],6.96
14,CCACTGTATGAATGCACACATTCATAGAATTGCTAT [CACACA_site2676],9.51
15,TAATAAGGTTACAACAAACACACAAAGGAATATACA [CACACA_site4089],7.11
16,TAATTTGTTAAAGGTTCACATATGGTATATACTTCT [XGTACX_negctrl_site292],6.33
17,GATATGATTAACTTATGTTATTCTTGATGGTTTCTT [GTGCAC_negctrl_site411],6.02
18,TTATAAAACCATGTCATCAACATAGGCACAAAAATG [CACACA_negctrl_site1160],6.52
19,TATCACAAAATATACTGTACATACAGGCAGTAATAT [XGTACX_site2487],6.36

row,Sequence,gcPBM binding intensity (ln)
1,TAACTTCAAACAAAATATGGTAAAAGTGGTTGAAAA [CACACA_negctrl_site42],6.42
2,AAAATACCCGGACACACACACATATATATATATATT [CACACA_site6137],6.9
3,GATGATTCAATTTATGCACACTAAAAATTAATTATA [CACACA_site4308],10.1
4,CCATAGATATTTTATACACACATATAATATATTAAT [CACACA_site373],6.72
5,ATAATCTGACAAATGTGTACACATATATATATATAT [XGTACX_site2379],9.28
6,AAATAATATATTCCTTGTACTTATTTCAATGAATTC [XGTACX_site7719],6.33
7,ACCAAAAGGGGATGTAGTACAATATGATTAGAAGAA [XGTACX_site3773],7.11
8,TATGTATAGATATATACACACTTCTGTGATACGAAA [CACACA_site7003],6.51
9,TAAAGAGTCATGTGGTGTACCTGCTTCACCACATAT [XGTACX_site1288],5.79
10,TTATTTTTAATATCGGTGCAACAAAAAGGAAAAGAT [GTGCAC_site9482],9.29
11,TATATATTCATAAAGTGTACATGTTTATATATATAT [XGTACX_site7585],8.53
12,ATATGTACATATCTCATGCACTTAACAAAAAAAAAG [GTGCAC_site9898],8.01
13,ACAATACAAATATATACACACATACATACATACATA [CACACA_site5699],7.03
14,TTAATATTTACAAAATGTACAGATTATTTATTGTTG [XGTACX_site1270],6.03
15,TTTTTTAATATTTATACATGCATGCCGATTACTATA [TGCATGCA_site26],6.67
16,AATAATTATAATAAGGGTACGTATCTCACAGGAAAA [XGTACX_site4187],6.72
17,AAATATGTCAAATATACACACATAATAACTAGAATA [CACACA_site7151],6.6
18,TATTTATTAAAACACACACACACACCGACAAAATAA [CACACA_site4293],7.2
